# Test results as given in PubChem BioAssay AID902 (National Center for Advancing Translational Sciences (NCATS), 2007).
# The campaign covered roughly 130,000 compounds. About 1,900 (1.5%) were called active. The shares of active, inactive and inconclusive entries below differ from those in the screen. Calls follow the shape of the dose curve; as a rule, active = well fitted cell-killing curve with a large enough effect; inconclusive = small, poorly fitted or top-dose-only effect; inactive = no such curve, though single readings can be large or run the other way. A potency beside an inconclusive call is a rough fit, not a confirmed value.
# Experiment: qHTS Screen for Compounds that Selectively Target Cancer Cells with p53 Mutations: Cytotoxicity of p53ts Cells at the Nonpermissive Temperature; also: nearly all actives have a fitted effect of over 55% in size
# Conditions: H1299-p53A138V viability at 39C, ATP luminescence, 24 h; activity change, negative = cell killing: at 46.1 µM (top of the series)
# % is scaled to controls: 0 for no effect and ±100 for the full control effect; potency is read from the fitted curve at half-maximal effect; tags tell the direction and shape of the fitted curve.
Structure (SMILES),Potency,"activity change, negative = cell killing"
COc1ccc(OCCCn2c(=O)oc3ccc(C)cc32)cc1,"inconclusive: 0.01 µM [cytotoxic, full curve, poor fit]",
O=C(CSc1nc2c(oc3ccccc32)c(=O)n1Cc1ccco1)Nc1cccc(Cl)c1,"inconclusive: 20 µM [cytotoxic, single point]",
Cc1coc2c1c(C)cc1oc(=O)cc(C)c12,,inactive: 0.733%
CCCCN(C)C(=O)C(Cc1ccccc1)NS(=O)(=O)c1ccc2c(c1)c(=O)n(C)c(=O)n2C (stereo not given),"inconclusive: 12.6 µM [cytotoxic, single point]",
Cc1oc(-c2cccc(Cl)c2)nc1CN1CCCC(C(=O)NCc2ccc(F)cc2)C1 (stereo not given),"inconclusive: 15.8 µM [cytotoxic, single point]",
O=C(COc1ccc(Cl)cc1Cl)NC1CCSC1=O (stereo not given),"inconclusive: 0.01 µM [cytotoxic, full curve, poor fit]",
CC(C)c1cc(C(=O)Nc2cc(Cl)ccc2O)no1,"inconclusive: 7.94 µM [cytotoxic, partial curve, poor fit]",
Fc1ccc(-c2nnc(NC3=NCCCCC3)o2)cc1,active: 3.98 µM,
Cc1cc(OC(=O)c2cc(-c3ccc4c(c3)OCCO4)on2)ccc1Cl,"inconclusive: 31.6 µM [cytotoxic, single point]",
CN1c2ccccc2-c2nc(SCC(=O)Nc3ccccc3C(F)(F)F)ncc2S1(=O)=O,"inconclusive: 5.01 µM [cytotoxic, partial curve, poor fit]",
COc1ccc(OC)c(NC(=O)c2c(NCc3ccc(C)o3)sc3c2CCC(C)C3)c1 (stereo not given),"inconclusive: 31.6 µM [cytotoxic, single point]",
COC(=O)c1ccc(Nc2nc(-c3ccccc3Cl)nc3ccccc23)cc1,"inconclusive: 25.1 µM [cytotoxic, single point]",
Cc1ccc(Cn2c(CO)cnc2SCC(=O)NCc2ccccc2Cl)cc1,"inconclusive: 12.6 µM [cytotoxic, partial curve]",
CCn1ccc2cc(S(=O)(=O)N3CCCN(C(=O)Nc4cccc(SC)c4)CC3)ccc21,"inconclusive: 0.0126 µM [cytotoxic, full curve, poor fit]",
Cc1ccc(N(C)C(CNS(=O)(=O)c2ccccc2)c2ccccc2)cc1 (stereo not given),"inconclusive: 20 µM [cytotoxic, single point]",
CCCCCOc1ccccc1CN1C(=O)C(=O)c2cc(C)ccc21,active: 12.6 µM,
Cc1ccc(/C=C/C(=O)N2CCC(c3nc4ccccc4o3)CC2)cc1,"inconclusive: 15.8 µM [cytotoxic, single point]",
O=C(NCCCN1CCN(Cc2ccccc2)CC1)C1CCN(c2nnc(-n3cccc3)s2)CC1,"inconclusive: 10 µM [cytotoxic, partial curve]",
Cc1cc(C)c2oc(-c3ccc(NC(=O)COc4ccccc4C)cc3)nc2c1,"inconclusive: 12.6 µM [cytotoxic, partial curve]",
CC1=C(c2ccc(C)c(C)c2)S(=O)(=O)N=C1N1CCC(C(=O)NCc2ccccc2C)CC1,"inconclusive: 1.26 µM [cytotoxic, full curve, poor fit]",
COC(=O)c1sc(N2C(=O)c3oc4ccc(C)cc4c(=O)c3C2c2ccc(O)c(OC)c2)nc1C (stereo not given),,inconclusive: -30.7% [cytotoxic]
CCCCC(CC)CNC(=O)CCCCn1c(=O)[nH]c2ccsc2c1=O (stereo not given),"inconclusive: 3.98 µM [cytotoxic, single point]",
CC(C)Nc1nc2c(S(=O)(=O)c3cccc(Cl)c3)nnn2c2ccsc12,,inactive: -13.7%
C=CCc1ccccc1OCc1nc2ccc(C)cc2[nH]1,"inconclusive: 31.6 µM [cytotoxic, single point]",

Structure (SMILES),Potency,"activity change, negative = cell killing"
CCc1ccc(NC(=O)C2CCCN2S(=O)(=O)c2ccc3nc(-c4ccccc4)[nH]c3c2)cc1 (stereo not given),,inactive: -17.1%
O=C(C1CCN(S(=O)(=O)c2ccc3ccccc3c2)CC1)N1CCN(c2ncccn2)CC1,,inactive: -4.62%
CNC(=O)CCCN1C(=O)CCn2nc(-c3cn(C)c4ccccc34)cc21,,inactive: -14.5%
Cc1ccc(CNC(=O)Cn2nc(N3CCN(c4ccccc4)CC3)ccc2=O)cc1,,inactive: -13.2%
CCCNC(=O)CSc1c2c(nc3ccc(Cl)cc13)CCCC2,"inconclusive: 20 µM [cytotoxic, single point]",
CCC(C)Nc1ccc(NC(C)CC)cc1 (stereo not given),"inconclusive: 6.31 µM [cytotoxic, full curve]",
COC(=O)c1ccc2c(=O)n(CCCCCC(=O)N3CCN(c4cc(C)ccc4C)CC3)c(=O)[nH]c2c1,active: 6.31 µM,
c1ccc2oc(-c3ccc4nc[nH]c4c3)nc2c1,"inconclusive: 12.6 µM [cytotoxic, single point]",
CCOC(=O)c1ccc(NC(=O)CSc2nc(-c3ccc(F)cc3)cc(C(F)(F)F)c2C#N)cc1,"inconclusive: 3.98 µM [cytotoxic, single point]",
COc1ccccc1NC(=O)c1ccc(-c2nc(COc3ccc(C)cc3)c(C)o2)cc1,"inconclusive: 0.02 µM [cytotoxic, full curve, poor fit]",
CN(C)Cc1ccccc1-c1nc(N(C)Cc2ccco2)c2ccccc2n1,,inactive: -10%
CS(=O)(=O)Nc1ccc(-c2nc3ccccc3s2)cc1,active: 2 µM,
CC1C(O)=C(c2nc3ccccc3[nH]2)C(=N)N1c1ccccc1 (stereo not given),,inactive: -16.9%
Nc1nnnn1/N=C/c1ccccc1OCc1ccc(Cl)cc1,,inactive: 15.7%
CCOc1ccc2nc(N3CCCC(C(=O)Nc4ccc(CC)cc4)C3)sc2c1 (stereo not given),"inconclusive: 15.8 µM [cytotoxic, partial curve]",
CCOc1ccc(C(=O)Nc2cccc(NC(=O)c3ccc(Cl)cc3Cl)c2)cc1,"inconclusive: 12.6 µM [cytotoxic, single point]",
CN(c1ccccc1)S(=O)(=O)c1cccc(C(=O)N2CCN(c3ccccn3)CC2)c1,,inactive: -10.4%
CC1CCN(C(=O)COC(=O)c2n[nH]c3ccccc23)CC1,active: 10 µM,
CC(Oc1ccc(Cl)cc1Cl)C(=O)NC(=S)N1CCc2ccccc21 (stereo not given),"inconclusive: 14.1 µM [cytotoxic, partial curve]",
Cc1cccc(C(=O)N2c3ncnn3C3(CCCCC3)[C@@H]3CCCC[C@@H]32)c1,active: 12.6 µM,
CCOc1ccc(CN2C(=O)C(=O)c3cccc(C)c32)cc1OC,active: 12.6 µM,
COc1ccc(-n2nnc(-c3nsc(NC(=O)c4cccc(C)c4)n3)c2C)cc1OC,"inconclusive: 0.126 µM [cytotoxic, full curve, poor fit]",
CSc1ccc(/C=C/c2nc3ccccc3n2S(=O)(=O)c2ccc(Br)cc2)cc1,active: 1.12 µM,
CN(C)c1ccc(NC(=O)c2cc3c(=O)n4ccccc4nc3n2C)cc1,,inactive: -8%

Structure (SMILES),Potency,"activity change, negative = cell killing"
C[C@](O)(c1ccccc1)c1nccc2ccccc12,,inactive: 8.34% [at 9.22 µM]
N#CC1=C(c2ccccc2)N=P(N2CCOCC2)(N2CCOCC2)N=C1N1CCOCC1,,inactive: -5.66%
O=C(Nc1ccc2c(c1)OCO2)c1ccncc1,,inactive: -5.17%
CC1N(C)c2cc(NC(=O)c3ccco3)ccc2C1(C)C (stereo not given),"inconclusive: 12.6 µM [cytotoxic, partial curve]",
COc1ccc(CNC(=O)c2cnn(-c3ccccc3)c2-n2cccc2)cc1OC,,inactive: -11.6%
Clc1ccccc1-c1nc(-c2ccccc2)n[nH]1,"inconclusive: 15.8 µM [cytotoxic, partial curve]",
CNc1nc(-c2ccc(C(=O)N(C)C)cc2)nc2ccccc12,"inconclusive: 12.6 µM [cytotoxic, partial curve]",
COc1ccccc1-c1nnc(NC(=O)c2ccc(S(=O)(=O)N(C)Cc3ccccc3)cc2)o1,active: 12.6 µM,
Cc1ccc(NC(=O)c2nc(S(=O)(=O)Cc3ccc(F)cc3)ncc2Cl)cc1C,active: 2.51 µM,
COc1cc(CNC(=O)c2ccc(NC(=O)N3CCCCc4ccccc43)cc2)cc(OC)c1OC,,inactive: 2.8%
Cc1nn(Cc2ccc(Cl)c(Cl)c2)c(C)c1NC(=O)c1cc(-c2ccc3c(c2)OCO3)on1,"inconclusive: 12.6 µM [cytotoxic, partial curve]",
Oc1ccccc1-c1nc2cnccn2c1Nc1ccc(Cl)cc1,"inconclusive: 1.26 µM [cytotoxic, partial curve]",
COc1ccc(CNC(=O)CN2C(=O)COc3ccccc32)c(OC)c1,,inactive: -26.4%
O=C(Nc1ccc(S(=O)(=O)N(Cc2ccccc2)c2ccccc2)cc1)c1ccccc1F,,inactive: -6.04%
O=C(CCCCn1c(=O)c2ccccc2n(Cc2ccc(F)cc2Cl)c1=O)NCCc1ccc(Cl)cc1,"inconclusive: 10 µM [cytotoxic, single point]",
Cc1nnc(SC(=O)N2c3ccccc3Sc3ccccc32)s1,"inconclusive: 20 µM [cytotoxic, single point]",
CC1CCc2c(sc3nc(SCC(=O)NCc4ccco4)nc(N)c23)C1 (stereo not given),"inconclusive: 12.6 µM [cytotoxic, single point]",
COc1ccc(C(=O)Nc2cccc(OC)c2)cc1,active: 12.6 µM,
O=C(CS(=O)CC(=O)N(CC(=O)NC1CCCC1)C1CCCC1)Nc1ccc(F)cc1 (stereo not given),"inconclusive: 31.6 µM [cytotoxic, single point]",
CC(C)c1ccccc1NC(=O)C(Cc1c[nH]c2ccccc12)NC(=O)OC(C)(C)C (stereo not given),"inconclusive: 31.6 µM [cytotoxic, single point]",
CCc1ccc2occ(CC(=O)Nc3ccc(OC)c(Cl)c3)c2c1,"inconclusive: 1 µM [cytotoxic, full curve, poor fit]",
Cc1[nH]c2ccc(-c3nnc(SCC(=O)c4ccccc4F)o3)cc2c1C,"inconclusive: 31.6 µM [cytotoxic, single point]",
